# This is one part of the list.
# B1: ASAL (Allium sativum), P83886 (protein)
# chain: MGRTTSSPKAMMRIATVAAILTILASTCMARNVLTNGEGLYAGQSLDVEQYKFIMQDDCNLVLYEYSTPIWASNTGVTGKNGCRAVMQRDGNFVVYDVNGRPVWASNSVRGNGNYILVLQKDRNVVIYGSDIWSTGTYRRSVGGAVVMAMNGTVDGGSVIGPVVVNQNVTAAIRKVGTGAA
# Tests used:
# Experiment in all cases: glycan array binding signal (z-score within array); higher = stronger binding
# Conditions in all cases: glycan notation: IUPAC condensed, linker removed
# [1] = biological target: Neu5Ac(a2-3)Gal(b1-3)GalNAc(b1-4)[Neu5Ac(a2-8)Neu5Ac(a2-3)]Gal(b1-4)Glc
# In short: (§1)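 Arrays were curated from the Consortium for Functional Glycomics database, 3228 in total, and kept only where the protein sequence was available. Binding is expressed as a within-array Z-score. This score was averaged across arrays of the same protein sequence at different concentrations or buffers and across linkers, and negative values can be read as non-binding.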
# [2] = biological target: Neu5Ac(a2-3)Gal(b1-3)GalNAc6S
# In short: as §1
# [3] = biological target: Neu5Ac(a2-3)Gal(b1-3)GlcNAc
# In short: as §1
# [4] = biological target: Neu5Ac(a2-3)Gal(b1-3)GlcNAc(b1-2)Man(a1-3)[Neu5Ac(a2-3)Gal(b1-3)GlcNAc(b1-2)Man(a1-6)]Man(b1-4)GlcNAc(b1-4)GlcNAc
# In short: as §1
# [5] = biological target: Neu5Ac(a2-3)Gal(b1-3)GlcNAc(b1-3)Gal(b1-3)GlcNAc
# In short: as §1
# [6] = biological target: Neu5Ac(a2-3)Gal(b1-3)GlcNAc(b1-3)Gal(b1-4)GlcNAc
# In short: as §1
# [7] = biological target: Neu5Ac(a2-3)Gal(b1-3)GlcNAc(b1-3)GalNAc
# In short: as §1
# [8] = biological target: Neu5Ac(a2-3)Gal(b1-3)GlcNAc6S
# In short: as §1
# [9] = biological target: Neu5Ac(a2-3)Gal(b1-3)[Fuc(a1-4)]GlcNAc
# In short: as §1
# [10] = biological target: Neu5Ac(a2-3)Gal(b1-3)[Fuc(a1-4)]GlcNAc(b1-3)Gal(b1-3)[Fuc(a1-4)]GlcNAc
# In short: as §1
# [11] = biological target: Neu5Ac(a2-3)Gal(b1-3)[Fuc(a1-4)]GlcNAc(b1-3)Gal(b1-4)[Fuc(a1-3)]GlcNAc
# In short: as §1
# [12] = biological target: Neu5Ac(a2-3)Gal(b1-3)[Neu5Ac(a2-3)Gal(b1-4)]GlcNAc
# In short: as §1
# [13] = biological target: Neu5Ac(a2-3)Gal(b1-3)[Neu5Ac(a2-6)]GalNAc
# In short: as §1
# [14] = biological target: Neu5Ac(a2-3)Gal(b1-4)Glc
# In short: as §1
# [15] = biological target: Neu5Ac(a2-3)Gal(b1-4)GlcNAc
# In short: as §1
# [16] = biological target: Neu5Ac(a2-3)Gal(b1-4)GlcNAc(b1-2)Man(a1-3)[GlcNAc(b1-2)Man(b1-4)GlcNAc(b1-2)Man(a1-6)]Man(b1-4)GlcNAc(b1-4)GlcNAc
# In short: as §1
# [17] = biological target: Neu5Ac(a2-3)Gal(b1-4)GlcNAc(b1-2)Man(a1-3)[Neu5Ac(a2-6)Gal(b1-4)GlcNAc(b1-2)Man(a1-6)]Man(b1-4)GlcNAc(b1-4)GlcNAc
# In short: as §1
# [18] = biological target: Neu5Ac(a2-3)Gal(b1-4)GlcNAc(b1-3)Gal
# In short: as §1
# [19] = biological target: Neu5Ac(a2-3)Gal(b1-4)GlcNAc(b1-3)Gal(b1-3)GlcNAc
# In short: as §1
# [20] = biological target: Neu5Ac(a2-3)Gal(b1-4)GlcNAc(b1-3)Gal(b1-4)GlcNAc
# In short: as §1
# [21] = biological target: Neu5Ac(a2-3)Gal(b1-4)GlcNAc(b1-3)Gal(b1-4)GlcNAc(b1-3)Gal(b1-4)GlcNAc
# In short: as §1
# [22] = biological target: Neu5Ac(a2-3)Gal(b1-4)GlcNAc(b1-3)Gal(b1-4)[Fuc(a1-3)]GlcNAc
# In short: as §1
# [23] = biological target: Neu5Ac(a2-3)Gal(b1-4)GlcNAc(b1-3)GalNAc
# In short: as §1
# [24] = biological target: Neu5Ac(a2-3)Gal(b1-4)GlcNAc(b1-6)[Gal(b1-3)]GalNAc
# In short: as §1
# [25] = biological target: Neu5Ac(a2-3)Gal(b1-4)GlcNAc(b1-6)[Neu5Ac(a2-3)Gal(b1-3)]GalNAc
# In short: as §1
# [26] = biological target: Neu5Ac(a2-3)Gal(b1-4)GlcNAc6S
# In short: as §1
# [27] = biological target: Neu5Ac(a2-3)Gal(b1-4)[Fuc(a1-3)]GlcNAc
# In short: as §1
# [28] = biological target: Neu5Ac(a2-3)Gal(b1-4)[Fuc(a1-3)]GlcNAc(b1-3)Gal
# In short: as §1
# [29] = biological target: Neu5Ac(a2-3)Gal(b1-4)[Fuc(a1-3)]GlcNAc(b1-3)Gal(b1-4)GlcNAc
# In short: as §1
# [30] = biological target: Neu5Ac(a2-3)Gal(b1-4)[Fuc(a1-3)]GlcNAc(b1-3)Gal(b1-4)[Fuc(a1-3)]GlcNAc(b1-3)Gal(b1-4)[Fuc(a1-3)]GlcNAc
# In short: as §1
# [31] = biological target: Neu5Ac(a2-3)Gal(b1-4)[Fuc(a1-3)]GlcNAc(b1-3)GalNAc
# In short: as §1
# [32] = biological target: Neu5Ac(a2-3)Gal(b1-4)[Fuc(a1-3)]GlcNAc(b1-6)[Gal(b1-3)]GalNAc
# In short: as §1
# [33] = biological target: Neu5Ac(a2-3)Gal(b1-4)[Fuc(a1-3)]GlcNAc(b1-6)[Neu5Ac(a2-3)Gal(b1-3)]GalNAc
# In short: as §1
# [34] = biological target: Neu5Ac(a2-3)Gal(b1-4)[Fuc(a1-3)]GlcNAc6S
# In short: as §1
# [35] = biological target: Neu5Ac(a2-3)Gal6S(b1-4)GlcNAc
# In short: as §1
# [36] = biological target: Neu5Ac(a2-3)Gal6S(b1-4)[Fuc(a1-3)]GlcNAc
# In short: as §1
# [37] = biological target: Neu5Ac(a2-3)GalNAc
# In short: as §1
# [38] = biological target: Neu5Ac(a2-3)GalNAc(b1-4)GlcNAc
# In short: as §1
# [39] = biological target: Neu5Ac(a2-3)[GalNAc(b1-4)]Gal(b1-4)Glc
# In short: as §1
# [40] = biological target: Neu5Ac(a2-3)[GalNAc(b1-4)]Gal(b1-4)GlcNAc
# In short: as §1
# [41] = biological target: Neu5Ac(a2-3)[GalNAc(b1-4)]Gal(b1-4)GlcNAc(b1-3)GalNAc
# In short: as §1
# [42] = biological target: Neu5Ac(a2-3)[Neu5Ac(a2-6)]GalNAc
# In short: as §1
# [43] = biological target: Neu5Ac(a2-6)Gal
# In short: as §1
binder,measurement,setting,value
B1,glycan array binding signal (z-score),[1],-0.186
same,glycan array binding signal (z-score),[2],-0.262
same,glycan array binding signal (z-score),[3],-0.245
same,glycan array binding signal (z-score),[4],-0.226
same,glycan array binding signal (z-score),[5],-0.268
same,glycan array binding signal (z-score),[6],-0.184
same,glycan array binding signal (z-score),[7],-0.269
same,glycan array binding signal (z-score),[8],-0.278
same,glycan array binding signal (z-score),[9],-0.285
same,glycan array binding signal (z-score),[10],-0.212
same,glycan array binding signal (z-score),[11],-0.189
same,glycan array binding signal (z-score),[12],-0.222
same,glycan array binding signal (z-score),[13],-0.269
same,glycan array binding signal (z-score),[14],-0.28
same,glycan array binding signal (z-score),[15],-0.226
same,glycan array binding signal (z-score),[16],-0.284
same,glycan array binding signal (z-score),[17],-0.154
same,glycan array binding signal (z-score),[18],-0.236
same,glycan array binding signal (z-score),[19],-0.271
same,glycan array binding signal (z-score),[20],-0.221
same,glycan array binding signal (z-score),[21],-0.268
same,glycan array binding signal (z-score),[22],-0.22
same,glycan array binding signal (z-score),[23],-0.248
same,glycan array binding signal (z-score),[24],-0.302
same,glycan array binding signal (z-score),[25],-0.302
same,glycan array binding signal (z-score),[26],-0.252
same,glycan array binding signal (z-score),[27],-0.271
same,glycan array binding signal (z-score),[28],-0.249
same,glycan array binding signal (z-score),[29],-0.139
same,glycan array binding signal (z-score),[30],-0.269
same,glycan array binding signal (z-score),[31],0.092
same,glycan array binding signal (z-score),[32],-0.077
same,glycan array binding signal (z-score),[33],-0.197
same,glycan array binding signal (z-score),[34],-0.299
same,glycan array binding signal (z-score),[35],-0.23
same,glycan array binding signal (z-score),[36],-0.267
same,glycan array binding signal (z-score),[37],-0.276
same,glycan array binding signal (z-score),[38],-0.258
same,glycan array binding signal (z-score),[39],-0.224
same,glycan array binding signal (z-score),[40],-0.258
same,glycan array binding signal (z-score),[41],-0.23
same,glycan array binding signal (z-score),[42],-0.245
same,glycan array binding signal (z-score),[43],-0.257

# Reference: the supplement of paper PMC8728848
